Assay results published in PMC6919601, “Identification of Plasmodium dipeptidyl aminopeptidase allosteric inhibitors by high throughput screening” (PLoS ONE, 2019).
In all, about 110,000 compounds went through this assay and about 230 (0.21%) showed an effect of 50% or more. This is one part of the list.

Biological target: DPAP1 (Plasmodium falciparum, UniProt Q8IIJ9)
Assay: primary screen, percent inhibition; read by cleavage of a fluorogenic dipeptide substrate; higher = more effect of the substance
Set-up: species or system P. falciparum D10 trophozoite lysates; single well
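Further: 30 min substrate incubation versus DMSO and 10 µM JCP410 controls.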

Chain of DPAP1 (Q8IIJ9 whole entry, looked up): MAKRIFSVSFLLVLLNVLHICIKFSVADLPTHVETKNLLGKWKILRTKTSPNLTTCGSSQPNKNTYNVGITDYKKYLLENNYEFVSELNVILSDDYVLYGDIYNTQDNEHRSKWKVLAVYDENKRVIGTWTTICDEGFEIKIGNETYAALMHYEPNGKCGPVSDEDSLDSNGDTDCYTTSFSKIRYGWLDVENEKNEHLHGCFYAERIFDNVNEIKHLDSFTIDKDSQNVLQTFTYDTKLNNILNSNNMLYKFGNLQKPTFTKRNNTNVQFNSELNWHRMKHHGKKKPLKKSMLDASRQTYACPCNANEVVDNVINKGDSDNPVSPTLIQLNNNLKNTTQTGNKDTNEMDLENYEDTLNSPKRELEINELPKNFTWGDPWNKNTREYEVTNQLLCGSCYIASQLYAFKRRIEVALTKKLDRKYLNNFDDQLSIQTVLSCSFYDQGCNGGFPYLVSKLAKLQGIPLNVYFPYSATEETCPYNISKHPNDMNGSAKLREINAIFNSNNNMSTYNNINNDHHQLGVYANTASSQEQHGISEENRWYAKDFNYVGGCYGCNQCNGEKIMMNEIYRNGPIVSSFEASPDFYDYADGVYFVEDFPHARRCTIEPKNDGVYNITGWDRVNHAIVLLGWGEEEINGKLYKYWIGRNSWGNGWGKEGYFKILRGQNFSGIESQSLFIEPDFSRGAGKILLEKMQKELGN

Question: For C#CCn1cc(/C=C(/C#N)C(=O)Nc2ccc(OCC)cc2)c2ccccc21, which “% Inhibition @ 10 uM” value is on record?
Answer: -1.32%

Question: How did the “% Inhibition @ 10 uM” value turn out when NC(=O)c1cc(NC(=O)c2ccc([N+](=O)[O-])cc2)c(Cl)cc1Cl was run?
Answer: -0.771%

Question: How did the “% Inhibition @ 10 uM” value turn out when CCOC(=O)c1c(S(=O)(=O)NCCCOC)c(C)n(C)c1C was run?
Answer: -4.9%

Question: How did the “% Inhibition @ 10 uM” value turn out when Cc1ccccc1CN(c1ccc(C(=O)N(C)Cc2ccccc2)cc1)S(C)(=O)=O was run?
Answer: 1.1%

Question: Which “% Inhibition @ 10 uM” value does the source give for COc1ccc(OC)c(C(O)CNC2CCNCC2)c1 (stereo not shown) here?
Answer: -1.57%

Question: Which “% Inhibition @ 10 uM” value does the source give for COc1ccc(Cl)cc1N(CC(=O)N1CCCCC1)S(C)(=O)=O here?
Answer: 0.643%

Question: How did the “% Inhibition @ 10 uM” value turn out when c1cc2c(cc1CN1CCSCC1)OCO2 was run?
Answer: -1.92%

Question: With COCCN1C(=O)c2[nH]nc(-c3ccccc3O)c2C1c1ccccc1F (stereo not shown) as the molecule, how does the “% Inhibition @ 10 uM” value read?
Answer: -4.95%

Question: For COc1cc(C(C)=O)ccc1OCC(O)Cn1nc(C)c(C)c1C (stereo not shown), which “% Inhibition @ 10 uM” value is on record?
Answer: -1.05%

Question: Cc1ccc(S(=O)(=O)N2CCN(C(c3ccccc3)c3ccccc3)CC2)cc1 was tested. Which “% Inhibition @ 10 uM” value did it give?
Answer: -0.128%

Question: How did the “% Inhibition @ 10 uM” value turn out when CCc1cccc(CC)c1NC(=O)c1cncc(Br)c1 was run?
Answer: -5.3%

Question: COc1ccc2oc(=O)cc(CN3CCN(C(=O)c4cc(OC)c(OC)c(OC)c4)CC3)c2c1 was tested. Which “% Inhibition @ 10 uM” value did it give?
Answer: -4.67%

Question: For N#CCc1nc(CSc2nnnn2-c2ccccc2)cs1, which “% Inhibition @ 10 uM” value is on record?
Answer: 1.72%

Question: CCOc1ccc(-n2nnc(-c3nc(-c4ccccc4)no3)c2N)cc1 was tested. Which “% Inhibition @ 10 uM” value did it give?
Answer: 2.15%

Question: For C=CCOC(=O)c1sc(N2C(=O)c3oc4ccccc4c(=O)c3C2c2ccc(Cl)cc2)nc1C (stereo not shown), which “% Inhibition @ 10 uM” value is on record?
Answer: -5.11%

Question: For O=C(CN(c1ccc(F)cc1)S(=O)(=O)c1ccc2c(c1)OCCO2)N1CCc2ccccc2C1, which “% Inhibition @ 10 uM” value is on record?
Answer: -12.4%

Question: Which “% Inhibition @ 10 uM” value does the source give for Cc1cc(CNC(=O)c2ccc(Cn3c(SCc4ccc(F)cc4)nc4cccnc43)cc2)[nH]n1 here?
Answer: 4.79%

Question: With COc1cc(C2C(C#N)=C(N)N(c3ccc(C)cc3)C3=C2C(=O)CCC3)cc(OC)c1OC (stereo not shown) as the molecule, how does the “% Inhibition @ 10 uM” value read?
Answer: -4.12%

Question: Which “% Inhibition @ 10 uM” value does the source give for CCc1ccc(C2=NN(CCC(=O)NC(C)(C)C)C(=O)CC2)cc1 here?
Answer: 2.35%

Question: With COc1ccc(C2=NS(=O)(=O)N(C)C(C(=O)N3CCC4(CC3)OCCO4)=C2)cc1 as the molecule, how does the “% Inhibition @ 10 uM” value read?
Answer: 3.92%

Question: How did the “% Inhibition @ 10 uM” value turn out when O=C(C1CCCN(Cc2ccncc2)C1)N1CCc2ccccc2C1 (stereo not shown) was run?
Answer: -2.98%

Question: Which “% Inhibition @ 10 uM” value does the source give for CCCn1c2ccccc2c2cnn(CC(=O)NC3CCCC(C)C3C)c(=O)c21 (stereo not shown) here?
Answer: 4.39%

Question: With O=C(CC12CC3CC(C1)CC(CC(=O)N1CCOCC1)(C3)C2)N1CCOCC1 as the molecule, how does the “% Inhibition @ 10 uM” value read?
Answer: 5.04%

Question: O=C1N=C(N2CCOCC2)S/C1=C/c1ccc(O)cc1 was tested. Which “% Inhibition @ 10 uM” value did it give?
Answer: -0.99%

Question: Which “% Inhibition @ 10 uM” value does the source give for CCN(CC)C(=O)Cc1cn(C)c2ccccc12 here?
Answer: -6.29%

Question: For Cc1ccc(/C=C2\C(=O)ON=C2c2ccccc2)o1, which “% Inhibition @ 10 uM” value is on record?
Answer: 21.3%

Question: With OC12CCCCC1C(c1ccc(F)c(Br)c1)NCC2 (stereo not shown) as the molecule, how does the “% Inhibition @ 10 uM” value read?
Answer: -5.48%

Question: With Cc1c(CN2CC3(C)CC2CC(C)(C)C3)c(=O)n(-c2ccccc2)n1C (stereo not shown) as the molecule, how does the “% Inhibition @ 10 uM” value read?
Answer: -2.21%

Question: Which “% Inhibition @ 10 uM” value does the source give for CC1CCN(S(=O)(=O)c2ccc3c(ccn3CC(=O)N3CCc4ccccc4C3)c2)CC1 here?
Answer: -3.34%

Question: Which “% Inhibition @ 10 uM” value does the source give for CC(C(=O)NCc1ccccc1)N(c1ccccc1)S(C)(=O)=O (stereo not shown) here?
Answer: 3.7%

Question: For CCc1ccc(C2CC(=O)NC3=C2C(=O)CC(C)(C)C3)cc1 (stereo not shown), which “% Inhibition @ 10 uM” value is on record?
Answer: -5.2%

Question: For O=C(COCc1cc(-c2ccc3c(c2)OCO3)on1)N1CCN(C(=O)c2ccco2)CC1, which “% Inhibition @ 10 uM” value is on record?
Answer: 8.8%

Question: Which “% Inhibition @ 10 uM” value does the source give for CC1CCN(C(=O)CCCOc2ccc(Cl)cc2Cl)CC1 here?
Answer: 3.83%

Question: CCOC(=O)C1=C(CSc2nc3cccnc3[nH]2)NC(=O)NC1c1cc(C)ccc1C (stereo not shown) was tested. Which “% Inhibition @ 10 uM” value did it give?
Answer: -0.834%

Question: How did the “% Inhibition @ 10 uM” value turn out when C#CC(C)(CC)NS(=O)(=O)c1cc(OC)c(Cl)cc1OC (stereo not shown) was run?
Answer: 0.324%

Question: How did the “% Inhibition @ 10 uM” value turn out when CCN1C(=O)c2cccc3c(Cl)ccc(c23)C1=O was run?
Answer: 0.526%

Question: Which “% Inhibition @ 10 uM” value does the source give for CC(C)(C)S(=O)(=O)c1ccc(S(=O)(=O)C(C)(C)C)s1 here?
Answer: 0.00178%

Question: How did the “% Inhibition @ 10 uM” value turn out when CC(C)Cn1cc(NC(=O)NCC2CCN(CCc3ccc(F)cc3)CC2)c2ccccc2c1=O was run?
Answer: -5%

Question: CCOc1ccccc1/C=C(\C#N)c1nc(-c2ccc(C)cc2)cs1 was tested. Which “% Inhibition @ 10 uM” value did it give?
Answer: -2.42%

Question: How did the “% Inhibition @ 10 uM” value turn out when CC(=O)Nc1ccc(N2C(=O)c3cc(Cl)c(Cl)cc3C2=O)cc1 was run?
Answer: 3.17%

Question: O=Cc1cn(CC(=O)NCC2CCCO2)c2ccccc12 (stereo not shown) was tested. Which “% Inhibition @ 10 uM” value did it give?
Answer: 2.35%

Question: For CCNS(=O)(=O)c1ccc(NC(=O)Cn2nc(C(F)(F)F)cc2C2CC2)cc1, which “% Inhibition @ 10 uM” value is on record?
Answer: -9.57%

Question: How did the “% Inhibition @ 10 uM” value turn out when O=C(Nc1c2c(nn1-c1cccc(Cl)c1)CSC2)c1ccc(S(=O)(=O)N2CCCC2)cc1 was run?
Answer: -2.38%

Question: Which “% Inhibition @ 10 uM” value does the source give for COc1ccc(CN2CCN(c3ccccc3Cl)CC2)cc1C here?
Answer: -0.969%

Question: With CCCCNC(=O)CN(c1ccc(Br)cc1)S(=O)(=O)c1ccccc1 as the molecule, how does the “% Inhibition @ 10 uM” value read?
Answer: -3.83%

Question: O=C(CCN1C(=O)S/C(=C\c2ccc(Cl)cc2)C1=O)Nc1ccc(C(=O)O)cc1 was tested. Which “% Inhibition @ 10 uM” value did it give?
Answer: 11.7%

Question: Which “% Inhibition @ 10 uM” value does the source give for CC(C)C(=O)NCCc1nc2ccccc2n1Cc1ccccc1F here?
Answer: -1.74%

Question: Which “% Inhibition @ 10 uM” value does the source give for CCOc1ccc(C(=O)NCc2cccnc2)cc1 here?
Answer: 11.8%

Question: How did the “% Inhibition @ 10 uM” value turn out when COc1ccc2c(CNCCCc3ccccc3)c(C(=O)O)[nH]c2c1 was run?
Answer: -2.39%

Question: Which “% Inhibition @ 10 uM” value does the source give for Cc1nc2ccn(Cc3cccs3)c(=O)c2cc1C(=O)NCc1ccccc1F here?
Answer: -1.56%

Question: How did the “% Inhibition @ 10 uM” value turn out when O=C(CCN1CCCCC1)c1ccccc1 was run?
Answer: 7.15%

Question: For Cc1ccsc1CCNC(=O)CCNS(=O)(=O)c1ccc2nc(O)ccc2c1, which “% Inhibition @ 10 uM” value is on record?
Answer: 3.25%

Question: How did the “% Inhibition @ 10 uM” value turn out when CCOC(=O)c1sc(N2C(=O)C(O)=C(C(=O)c3ccccc3)C2c2ccc(OC)cc2)nc1C (stereo not shown) was run?
Answer: 0.487%

Question: For O=C(NCCC1=CCCCC1)C1CCN(c2nnc(-n3cccc3)s2)CC1, which “% Inhibition @ 10 uM” value is on record?
Answer: 0.942%

Question: NC(=O)C1CCN(C(=O)CSc2c3c(nc4ccccc24)CCCC3)CC1 was tested. Which “% Inhibition @ 10 uM” value did it give?
Answer: 0.317%

Question: With COC(=O)CC(N)c1ccccc1 (stereo not shown) as the molecule, how does the “% Inhibition @ 10 uM” value read?
Answer: -0.239%

Question: How did the “% Inhibition @ 10 uM” value turn out when Cc1sc(NC(=O)CC(C)(C)CC(=O)Nc2sc(C)c(C)c2C(=O)O)c(C(=O)O)c1C was run?
Answer: -6.02%

Question: How did the “% Inhibition @ 10 uM” value turn out when CN(CCCNC(=O)c1ccc2c(c1)nc(S)n1c3ccccc3nc21)Cc1ccccc1 was run?
Answer: 8.59%

Question: Which “% Inhibition @ 10 uM” value does the source give for COc1ccc2[nH]c3c(=O)n(CCC(=O)NCCc4ccc(OC)c(OC)c4)c(=S)[nH]c3c2c1 here?
Answer: -7.65%

Question: For CC(C)c1ccc(/C=C(/C#N)c2nc(-c3cccs3)cs2)cc1, which “% Inhibition @ 10 uM” value is on record?
Answer: -0.856%

Question: For COc1ccc(S(=O)(=O)N2CCC(C(=O)NCCC3=CCCCC3)CC2)cc1, which “% Inhibition @ 10 uM” value is on record?
Answer: 5.09%
